# From the supplement of paper PMC12217912
# Some of the results follow. Sequences were assembled here from the parent chain. Values near 0.05 are background.
# B1: TEV protease; numbered along this chain (parent)
# chain: MGESLFKGPRDYNPISSSICHLTNESDGHTTSLYGIGFGPFIITNKHLFRRNNGTLVVQSLHGVFKVKDTTTLQQHLVDGRDMIIIRMPKDFPPFPQKLKFREPQREERICLVTTNFQTKSMSSMVSDTSCTFPSGDGIFWKHWIQTKDGQCGSPLVSTRDGFIVGIHSASNFTNTNNYFTSVPKNFMELLTNQEAQQWVSGWRLNADSVLWGGHKVFMVKPEEPFQPVKEATQL
# Variants of: B1
# Assay: raw area under fraction-flipped curve 0-4 h after induction (AUC4h, not background-subtracted), DNA-recorder readout of cleavage of the substrate (dimensionless); higher = more cleavage of the substrate by the protease variant
# Details: temperature: 34 °C; time window: 0-4 h after rhamnose induction
# Description: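 In vivo DNA recorder in E. coli TOP10(DE3) ΔrhaA at 34 °C. Each TEVp single-site mutant (parent TEVp 0) is paired with a single-site variant of the 7-mer TEVs (canonical ENLYFQ|S). The substrate sits between flexible linkers in a Bxb1-sfGFP-TEVs-SsrA fusion, so cleavage stabilises Bxb1 and speeds flipping of a recombination array, read by NGS. The value is the raw area under the fraction-flipped curve over 0-4 h after rhamnose induction (AUC4h), with ≥20 reads per time point. It is not background-subtracted; inactive controls average about 0.047.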
# 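Further: Bxb1 expression induced with 0.2% (w/v) L-rhamnose at OD600 near 0.5, cultures sampled hourly, flipped fraction per protease–substrate barcode pair counted by paired-end Illumina sequencing.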
Variant,area with substrate EALYFQS,area with substrate ECLYFQS,area with substrate EDLYFQS,area with substrate EHLYFQS,area with substrate EILYFQS,area with substrate EKLYFQS,area with substrate ELLYFQS,area with substrate EMLYFQS,area with substrate ERLYFQS,area with substrate ETLYFQS,area with substrate EVLYFQS,area with substrate EWLYFQS,area with substrate EELYFQS,area with substrate EFLYFQS,area with substrate EPLYFQS,area with substrate EQLYFQS,area with substrate ESLYFQS,area with substrate EGLYFQS,area with substrate EYLYFQS
MGESLFKGPRDYNPISSSICHLTNESDGHTTSLYGIGFGPFIITNKHLFRRNNGTLVVQSLHGVFKVKDTTTLQQHLVDGRDMIIIRMPKDFPPFPQKLKFREPQREERICLVTTNFQTKSMSSMVSDTSCTFPSGDGIFWKHWIQTKDGQCGSPLVSTRDGFIVGIHSASNFTNTNNYFTSVPQNFMELLTNQEAQQWVSGWRLNADSVLWGGHKVFMVKPEEPFQPVKEATQL [K185Q],0.126,0.0921,0.128,0.0879,0.0976,0.0949,0.0911,0.126,0.102,0.0971,0.106,0.0883,,,,,,,
MGESLFKGPRDYNPISSSICHLTNESDGHTTSLYGIGFGPFIITNKHLFRRNNGTLVVQSLHGVFKVKDTTTLQQHLVDGRDMIIIRMPKDFPPFPQKLKFREPQREERICLVTTNFQTKSMSSMVSDTSCTFPSGDGIFWKHWIQTKDGQCGSPLVSTRDGFIVGIHSASNFTNTNNYFTSVPWNFMELLTNQEAQQWVSGWRLNADSVLWGGHKVFMVKPEEPFQPVKEATQL [K185W],0.17,0.107,0.115,0.15,0.0938,0.111,0.079,0.102,0.111,,0.143,0.0815,0.116,0.0951,0.141,0.111,0.112,,
MGESLFKGPRDYNPISSSICHLTNESDGHTTSLYGIGFGPFIITNKHLFRRNNGTLVVQSLHGVFKVKDTTTLQQHLVDGRDMIIIRMPKDFPPFPQKLKFREPQREERICLVTTNFQTKSMSSMVSDTSCTFPSGDGIFWKHWIQTKDGQCGSPLVSTRDGFIVGIHSASNFTNTNNYFTSVPKNLMELLTNQEAQQWVSGWRLNADSVLWGGHKVFMVKPEEPFQPVKEATQL [F187L],0.111,0.0959,0.139,0.126,0.0735,0.116,0.105,0.15,0.108,0.115,0.103,,,0.0885,0.101,0.116,0.101,0.0832,
MGESLFKGPRDYNPISSSICHLTNESDGHTTSLYGIGFGPFIITNKHLFRRNNGTLVVQSLHGVFKVKDTTTLQQHLVDGRDMIIIRMPKDFPPFPQKLKFREPQREERICLVTTNFQTKSMSSMVSDTSCTFPSGDGIFWKHWIQTKDGQCGSPLVSTRDGFIVGIHSASNFTNTNNYFTSVPKNWMELLTNQEAQQWVSGWRLNADSVLWGGHKVFMVKPEEPFQPVKEATQL [F187W],0.0782,0.0768,0.0887,,0.0714,0.0824,,0.0794,0.0822,,0.0754,,0.0784,,0.0845,0.0634,0.0895,0.0837,
MGESLFKGPRDYNPISSSICHLTNESDGHTTSLYGIGFGPFIITNKHLFRRNNGTLVVQSLHGVFKVKDTTTLQQHLVDGRDMIIIRMPKDFPPFPQKLKFREPQREERICLVTTNFQTKSMSSMVSDTSCTFPSGDGIFWKHWIQTKDGQCGSPLVSTRDGFIVGIHSASNFTNTNNYFTSVPKNFDELLTNQEAQQWVSGWRLNADSVLWGGHKVFMVKPEEPFQPVKEATQL [M188D],0.104,0.1,0.118,0.108,,0.101,,,0.0858,,0.105,,0.12,0.0918,0.142,,0.103,,0.117
MGESLFKGPRDYNPISSSICHLTNESDGHTTSLYGIGFGPFIITNKHLFRRNNGTLVVQSLHGVFKVKDTTTLQQHLVDGRDMIIIRMPKDFPPFPQKLKFREPQREERICLVTTNFQTKSMSSMVSDTSCTFPSGDGIFWKHWIQTKDGQCGSPLVSTRDGFIVGIHSASNFTNTNNYFTSVPKNFMPLLTNQEAQQWVSGWRLNADSVLWGGHKVFMVKPEEPFQPVKEATQL [E189P],0.0833,0.0329,,,0.0984,0.0813,0.0725,,0.114,,,0.0738,,0.106,0.0784,,0.0874,,
MGESLFKGPRDYNPISSSICHLTNESDGHTTSLYGIGFGPFIITNKHLFRRNNGTLVVQSLHGVFKVKDTTTLQQHLVDGRDMIIIRMPKDFPPFPQKLKFREPQREERICLVTTNFQTKSMSSMVSDTSCTFPSGDGIFWKHWIQTKDGQCGSPLVSTRDGFIVGIHSASNFTNTNNYFTSVPKNFMWLLTNQEAQQWVSGWRLNADSVLWGGHKVFMVKPEEPFQPVKEATQL [E189W],0.108,0.0985,0.1,,0.0645,0.16,,0.108,,,0.0994,0.104,,,,,0.1,0.0986,
MGESLFKGPRDYNPISSSICHLTNESDGHTTSLYGIGFGPFIITNKHLFRRNNGTLVVQSLHGVFKVKDTTTLQQHLVDGRDMIIIRMPKDFPPFPQKLKFREPQREERICLVTTNFQTKSMSSMVSDTSCTFPSGDGIFWKHWIQTKDGQCGSPLVSTRDGFIVGIHSASNFTNTNNYFTSVPKNFMEELTNQEAQQWVSGWRLNADSVLWGGHKVFMVKPEEPFQPVKEATQL [L190E],0.0803,0.0806,0.123,0.112,0.0789,0.0816,,0.112,0.107,0.085,0.0898,0.108,,0.0849,,0.107,0.082,0.0545,0.0881
MGESLFKGPRDYNPISSSICHLTNESDGHTTSLYGIGFGPFIITNKHLFRRNNGTLVVQSLHGVFKVKDTTTLQQHLVDGRDMIIIRMPKDFPPFPQKLKFREPQREERICLVTTNFQTKSMSSMVSDTSCTFPSGDGIFWKHWIQTKDGQCGSPLVSTRDGFIVGIHSASNFTNTNNYFTSVPKNFMEQLTNQEAQQWVSGWRLNADSVLWGGHKVFMVKPEEPFQPVKEATQL [L190Q],0.124,0.098,,,,,,,,,,,0.109,,,,0.0968,,0.0947
